This passage reports survival results from PubChem BioAssay AID463173 (ICCB-Longwood Screening Facility, Harvard Medical School, 2010).

The whole screen tested about 52,000 compounds, of which about 1,700 (3.3%) were called active. Cut-off read from the data, not from the text of the source: active = survival mostly below about 52% (no sharp cut-off); inactive = mostly above about 56%. The list shows a part of the results.

This assay concerns Wild type. As to the kind of experiment: S. aureus survival, RN4220 and DeltatarO strains – OD600, teichoic acid synthesis inhibitors, primary screen (AID 463173). The settings on record: S. aureus RN4220 wild type/DeltatarO growth, OD600, 18 h, hits give low values, screened at 18.75 µg/mL (by protocol).
For `CC(C)c1ccc(NC(=O)Nc2csc3c2CCCC3)cc1`, the survival is inactive: 25%.
With `Cc1ccc2c(=O)cc(C(=O)Nc3c(C(=O)Nc4cccc(Cl)c4)oc4ccccc34)oc2c1`, the survival was inactive: 83%.
The same measure for `O=C(c1ccc(Br)s1)N(Cc1cccnc1)c1nc2ccc(F)cc2s1`: inactive: 73%; for `CCOc1ccccc1NC(=O)CN1C(=O)COc2ccc(S(=O)(=O)N3CCCCC3)cc21`: inactive: 96%; for `Cc1ccc(N2C(=O)CSC23C(=O)N(CC(=O)NC2CCCCC2)c2ccccc23)cc1C` (stereo unspecified): inactive: 69%.
Under `Cn1cc(C(c2ccccc2)c2ccc(Cl)s2)c2ccccc21` (stereo unspecified) stands inactive: 94%.
The same measure for `Cc1ccc2c(c1)c1c(n2CC(O)CN2CCCCC2)C(=O)CCC1` (stereo unspecified): inactive: 109%.
With `CCOC(=O)c1c(C)oc2ncnc(Nc3cc(Cl)ccc3OC)c12`, the survival is inactive: 84%.
The same measure for `CSc1ncc(C(=O)NCc2ccc(C)cc2)c(-c2ccccc2)n1`: active: -2%.
The same measure for `Cc1ccc(CNC(=O)C2CCN(S(=O)(=O)c3c(C)noc3/C=C/c3c(C)cc(C)cc3C)CC2)cc1`: inactive: 70%; for `Cc1ccc2nc(COc3ccccc3NC(=O)COc3ccccc3Cl)cc(=O)n2c1`: inactive: 99%.
The same measure for `CCOc1ccccc1CNC(=O)CCCN1C(=O)c2cccnc2Oc2ccc(Cl)cc21`: inactive: 68%.
Take `COc1ccccc1Cn1c(SCC(=O)C(C)(C)C)nc2ccccc2c1=O`: the survival was inactive: 89%.
Under `CCNC(=O)C1CCN(Cc2cc3ccccc3n2Cc2ccc(C)cc2)CC1` stands inactive: 85%.
The same measure for `CCOC(=O)c1c(C)oc2nc(C)nc(N3CCN(c4ccc(OC)cc4)CC3)c12`: inactive: 68%.
`O=C(c1cccn1-c1nnc(N2CCCCC2)s1)N1CCN(c2ccccc2)CC1`: the survival is active: -3%.
The same measure for `COC(=O)CN1C(C(=O)c2ccccc2)=C(OC(=O)c2ccc(C)cc2)c2ccccc2S1(=O)=O`: inactive: 90%; for `Clc1cccc(CSc2ccc(-c3cccs3)nn2)c1`: inactive: 112%.
Under `N#Cc1ccc(CSc2nnc(-c3ccc(Br)cc3)o2)cc1` stands inactive: 74%.
Under `CCS(=O)(=O)c1ccccc1C(=O)N1CCN(c2nc3ccccc3s2)CC1` stands inactive: 65%; under `CCn1c(=O)c2sccc2n2c(CCC(=O)NCc3ccc(Cl)cc3)nnc12`, inactive: 75%; under `Cc1oc(-c2cccc(Cl)c2)nc1CSCC(=O)NCc1ccccc1Cl`, active: -1%.
On to `CCOC(=O)C1CCN(C(=O)Cn2ncc3c4ccccc4n(C)c3c2=O)CC1`, for which the survival is inactive: 73%.
The same measure for `COc1ccc(CNC(=O)CCCN2C(=O)c3cccnc3Oc3ccc(Cl)cc32)cc1`: inactive: 80%; for `Cc1ccc(-n2c(SCC(=O)Nc3ccc4c(c3)OCCO4)nc3c([nH]c4ccccc43)c2=O)cc1`: inactive: 120%.
Under `Cc1cccc(NS(=O)(=O)c2nnc(NC(=O)c3cccc(C)c3)s2)c1` stands inactive: 63%; under `Cc1cccc(NC(=O)c2cc3c(=O)n4ccccc4nc3n2C)c1C`, inactive: 84%.
The same measure for `CC(C)CCNc1ccc(-c2ccc(Cl)cc2)nn1`: inactive: 106%.
Turning to `CCCCNC(=O)Cn1cnc2sc(C)c(S(=O)(=O)N3CCN(c4ccccc4OC)CC3)c2c1=O`, the survival was inactive: 82%.
Under `Cc1csc2nc(COC(=O)c3ccc(NC(=O)C(C)C)cc3)cc(=O)n12` stands inactive: 120%; under `CC(C)OCCCNC(=O)CN1C(=O)COc2ccc(S(=O)(=O)N3CCOCC3)cc21`, inactive: 74%; under `COc1ccccc1NC(=O)c1ncoc1-c1ccco1`, inactive: 55%.
The same measure for `Cc1ccc(OCC(=O)Nc2sc3c(c2C(N)=O)CCCC3)c(C(C)(C)C)c1`: inactive: 68%; for `COCCNC(=O)c1ccc(-c2nc(CN3CCc4ccccc43)c(C)o2)cc1`: inactive: 75%; for `COc1cc(C(=O)Nc2sc(C(=O)N3CCOCC3)c(C)c2C#N)cc(OC)c1OC`: inactive: 112%.
Under `O=C(Cn1ncc2c3ccccc3n(Cc3ccccc3F)c2c1=O)NCCCc1ccccc1` stands inactive: 91%; under `CCOc1ccc2nc(NC(=O)c3ccccc3)sc2c1`, inactive: 58%.
Consider `Cc1ccc(C(=O)Nc2ccc(Br)cc2)cc1S(=O)(=O)NCc1ccccc1`, for which the survival was inactive: 89%.
On to `CCOc1ccccc1C(=O)N(Cc1ccco1)Cc1ccccc1F`, for which the survival was inactive: 87%.
The same measure for `COC(=O)c1ccccc1NC(=O)CSc1nc2nc(C)cc(C)n2n1`: inactive: 69%; for `CCc1nc2ccc(C(=O)NCc3cccc(Br)c3)cc2nc1CC`: inactive: 75%.
The same measure for `O=c1c(N2CCCCC2)csc2ccc(F)cc12`: inactive: 68%.
Under `COc1ccc(-c2nc3ccccc3s2)cc1NC(=O)COc1cccc(C)c1` stands inactive: 39%; under `CCc1ccc(S(=O)(=O)Nc2cc3c(cc2N2CCOCC2)n(C)c(=O)c(=O)n3C)cc1`, active: 1%; under `CCOc1ccc(NC(=O)C(=O)NCCc2ccccc2)cc1`, inactive: 84%.
Regarding `CC(C)OC(=O)CSc1nnc(-c2ccc(O)cc2)o1`, the survival is inactive: 92%.
Regarding `O=C(Cn1c(=O)n(CCCS(=O)(=O)C2CCCCC2)c(=O)c2ccccc21)Nc1ccc(F)c(Cl)c1`, the survival is inactive: 99%.
Under `COc1ccc(C)cc1NC(=O)N1CCN(c2nnc(C)c3c(C)n(-c4ccccc4)nc23)CC1` stands inactive: 69%; under `Cc1cc(C)cc(NC(=O)CCCn2c(=O)c3cccn3c3ccccc32)c1`, inactive: 85%.
Under `C=CCN1C(=O)CN=C1NCc1ccccc1` stands inactive: 99%; under `CCOc1ccc(NC(=O)CC2C(=O)N(c3ccccc3)C(=O)N2Cc2cccc(OC)c2)cc1` (stereo unspecified), inactive: 75%; under `COCCCNC(=O)c1nn(-c2ccc(C)cc2)c(=O)n(C)c1=O`, inactive: 77%.
As to `O=C(c1cnc(N2CCCCC2)c2ccccc12)N1CCN(c2cccc(Cl)c2)CC1`, the survival was inactive: 68%.
On to `CCc1cccc(NC(=O)Cn2ncc3c([nH]c4ccc(C)cc43)c2=O)c1`, for which the survival is inactive: 100%.
Turning to `CCOc1ccccc1NC(=O)CCc1c(C)nc2c3cccnc3nn2c1C`, the survival is inactive: 80%.
Take `COc1ccc(Cl)cc1C1CC(=O)Nc2cc3c(cc21)OCCO3` (stereo unspecified): the survival was inactive: 85%.
Turning to `CCCCNc1sc(S(=O)(=O)CCC)nc1S(=O)(=O)c1ccc(C)cc1`, the survival is inactive: 92%.
On to `CCNC(=O)c1c2c(nc3ccccc13)C(=O)N(C1CCCCC1)C2`, for which the survival was inactive: 124%.
Under `O=C(Cn1c(SCc2ccccc2F)nc2cccnc21)Nc1ccc(F)c(Cl)c1` stands inactive: 72%; under `CC1=C/C(=N/OC(=O)c2ccccc2)C=CC1=O`, inactive: 105%.
Take `Cc1ccc(CN2C(=O)c3ccccc3Sc3ccc(C(=O)NC4CCCC4)cc32)cc1`: the survival is inactive: 76%.
Under `COc1cccc(C(=O)NCCc2csc(-c3cccc(F)c3)n2)c1OC` stands inactive: 70%; under `Cc1ccc(C(=O)N2CCc3cc(CNC(=O)CCc4ccccc4)ccc32)cc1`, inactive: 127%; under `O=C(NC1CC(=O)N(c2ccccc2)C1)c1ccco1` (stereo unspecified), inactive: 74%.
Under `CCc1cccc(NC(=O)CN(c2ccc(C)cc2)S(=O)(=O)c2cccs2)c1` stands inactive: 85%; under `O=C(Nc1ccc(F)cc1)Nc1ccc2snnc2c1`, inactive: 45%; under `COc1cccc(CNC(=O)C(CC(C)C)NS(=O)(=O)c2ccc3c(c2)oc(=O)n3C)c1` (stereo unspecified), inactive: 126%.
Under `Cc1c2cnn(CC(=O)N3CCCCC3)c(=O)c2c(C)n1Cc1ccc(F)cc1` stands inactive: 77%; under `CCC1CCCCN1CCCNC(=O)c1[nH]c2ccccc2c1Sc1ccc(Cl)cc1` (stereo unspecified), active: -1%.
`CCOc1ccc(C(c2c(O)cc(C)n(CCOC)c2=O)N2CCN(c3ccccc3)CC2)cc1` (stereo unspecified): the survival was inactive: 66%.
The same measure for `CCN(C(=O)CCS(=O)(=O)c1cc2[nH]c(=O)c(=O)[nH]c2cc1C)c1ccccc1`: inactive: 79%.
The same measure for `COc1ccc(-c2noc(N3CCC(C(=O)Nc4ccc(F)cc4Cl)CC3)n2)cc1`: inactive: 82%; for `COc1ccccc1OCc1nnc(SCCN2CCOCC2)o1`: inactive: 102%.
Under `Cc1ccc2c(c1)C(=O)OC(C(=O)Nc1ncc(Cc3ccc(C(C)C)cc3)s1)C2` (stereo unspecified) stands inactive: 85%.
Consider `Cc1ccc(Cl)cc1NS(=O)(=O)c1ccc2oc(=O)c3ncn(C)c3c2c1`, for which the survival was inactive: 136%.
Under `Cc1ccc(-c2cn3nc(N4CCCC(C(=O)Nc5ccc(F)cc5)C4)sc3n2)cc1` (stereo unspecified) stands inactive: 83%; under `Cc1ccc2sc(N3CCN(C(=O)CCS(=O)(=O)c4ccc(Cl)cc4)CC3)nc2c1C`, inactive: 75%; under `O=C(NCCc1ccc(F)cc1)C(=O)NCC(c1cccs1)S(=O)(=O)c1ccc(F)cc1` (stereo unspecified), inactive: 74%.
Under `CCOC(=O)/C(C#N)=C\c1cccn1C` stands inactive: 104%; under `CCCN(CCC)C(=O)Cn1c(=O)n(-c2cccc(OC)c2)c(=O)c2c(C)c(C(=O)N(C)C)sc21`, inactive: 59%.
The same measure for `Cc1ccc(N(CC(=O)N2CCN(c3ccc(Cl)cc3)CC2)S(=O)(=O)c2c(C)nn(C)c2C)cc1`: inactive: 77%.
For the compound `CCC(Sc1nc2ncccc2[nH]1)C(=O)Nc1cccc(OC)c1` (stereo unspecified), the survival was inactive: 60%.
The same measure for `COCCCn1c(=O)c2sccc2n2c(CCCC(=O)Nc3cc(C)cc(C)c3)nnc12`: inactive: 85%; for `O=C(O)C1CCCN1C(=O)c1cncc(Br)c1` (stereo unspecified): inactive: 106%; for `COc1ccccc1CNC(=O)C1CCCN(C(=O)c2cnn(-c3ccc(F)cc3)c2-n2cccc2)C1` (stereo unspecified): inactive: 88%.
In the case of `COc1ccccc1OCCCSc1nc(-c2ccc(C(C)(C)C)cc2)nc2cc(=O)[nH]n12`, the survival is inactive: 88%.
Under `Cc1ccc(NC(=O)C(Cc2ccccc2)n2cccc2)cc1` (stereo unspecified) stands inactive: 96%; under `COc1ccc(OC)c(NCc2cccn2-c2nnc(N3CCCCC3)s2)c1`, inactive: 66%.
Under `CN1CCc2c(sc3c2C(=O)NC(c2ccc(OC(=O)c4ccccc4)cc2)N3)C1` (stereo unspecified) stands inactive: 73%.
Under `Cc1ccc(C)c(S(=O)(=O)c2cn(C)c3cc(N4CCCCC4C)c(F)cc3c2=O)c1` (stereo unspecified) stands inactive: 93%; under `COc1ccc(CNC(=O)Cn2ncc3c4ccccc4n(Cc4cccc(Cl)c4)c3c2=O)cc1`, inactive: 81%.
